# Reference: the supplement of paper PMC3334620
# The full ranking holds about 33,000 sequences; the median of “E-score (-0.5 to 0.5)” is about -0.016, and the highest 2% start at about 0.31. The list shows a part of the results.
# Target: Cst6 (UniProt P40535)
# Test: PBM E-score (8-mer binding enrichment) (E-score (-0.5 to 0.5)); higher = stronger / more preferred TF binding; most listed sequences are background and not binding sites
# Settings: protein concentration: 200 nM; construct: GST-DNA-binding domain
# Procedure, shortened: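 Universal all-10-mer Agilent arrays, double-stranded by primer extension on fresh or once-stripped slides, were probed with about 100-200 nM GST-tagged yeast transcription factors made by PURExpress. Fluorescent anti-GST detected bound protein, and masliner normalised the scans. E-scores from the Universal PBM Analysis Suite were given to each ungapped eight-base word pooled with its reverse complement.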
row,Sequence,PBM E-score
1,GCGAAGGA,-0.169
2,GTATAGGA,-0.169
3,GCCCCAGC,-0.217
4,AAGTTCCC,-0.229
5,CCCATCAA,0.0258
6,TGCTGCCA,-0.0603
7,CACCTTCC,-0.105
8,ATTCCACA,0.165
9,AAAGTCTA,0.0819
10,GAGAACAA,0.254
11,ACTGACGC,0.243
12,AGCCTGTG,-0.228
13,ATCTCTAC,0.113
14,CACTGCCG,0.135
15,GACTTTAA,-0.101
16,GTCATGCA,0.36
17,CCCCCACG,-0.242
18,ACATCGGA,-0.00933
19,CTTCCTGC,-0.21
20,CAGTGCTA,-0.154
21,AAATTAAG,0.0224
22,CTATAACC,-0.064
23,CCATGCGG,0.049
24,AGTTATTA,0.195
25,AAGTAGCA,0.0243

row,Sequence,PBM E-score
1,CCTGTCAG,-0.195
2,ACTGCGCC,0.0369
3,ATGGAACC,-0.143
4,ACGGGTCT,-0.148
5,AGGATTTC,0.0194
6,AAAATACA,0.0702
7,CGAATAGC,-0.00858
8,GAAGGGCA,-0.0405
9,CAGTCACC,-0.113
10,ACCTTGTG,-0.0071
11,ATAACAAA,0.303
12,AGACAGGG,-0.28
13,ACAACTTA,0.072
14,GTCCGTTA,-0.114
15,AAGATGCC,0.0416
16,CTCCAAAG,-0.104
17,AGGGGAAC,-0.359
18,ACTTTAGC,-0.0587
19,CCTACTCG,-0.171
20,CATAAACC,0.0467
21,AGGTATGG,-0.179
22,ATGTCTAC,-0.106
23,AAAAAACT,0.14
24,GATACATC,0.126
25,ATGTTGGA,0.143

row,Sequence,PBM E-score
1,GCTTTCCA,0.0531
2,GGTTTTCA,0.132
3,ATAATGCC,0.167
4,TACTCTGA,0.0538
5,CATTTCCC,0.136
6,CGTCCTAA,-0.17
7,GCGTGCAC,-0.0584
8,CGCGTTAC,0.063
9,GACCTAGA,-0.094
10,CATAACGG,-0.00203
11,GTTAAAAC,-0.0213
12,TTCTAAAA,0.161
13,GCACGAAC,0.111
14,GGAATCAC,0.0293
15,CCATCTAA,0.0382
16,AGAGCACG,0.00533
17,AACACTAA,0.104
18,AACAACTG,0.0881
19,GGAAATGA,0.195
20,GATAAGGA,0.0441
21,AATCACGT,0.296
22,CGCTAGCA,-0.169
23,ATGTCGGG,0.038
24,CAGATCGA,-0.0884
25,AGGCCGAG,-0.16

row,Sequence,PBM E-score
1,TGGCTGAA,-0.0764
2,ACCACCTA,-0.169
3,CACTGAAC,0.028
4,ACGCGGTC,-0.0683
5,ATCCCTAG,-0.0881
6,CTGACGCC,0.119
7,CTGCCCCC,-0.303
8,AAAGGTAG,-0.0954
9,ACTCATAA,0.0843
10,CTCTAAAG,-0.0822
11,AGCTCATG,-0.0133
12,ACGCAACC,0.187
13,AAGGGCAC,0.0638
14,GCATTGCA,0.0618
15,CGGAGTCC,-0.111
16,CGCGGCTA,0.274
17,CATAAATA,0.154
18,CGGTGTAC,-0.129
19,CTGAAAAC,0.0944
20,ATACTGAC,0.142
21,TCGAACGA,0.101
22,GAGGTATC,-0.141
23,CCAAATAG,-0.0451
24,CCCACGAG,-0.326
25,ACGTGGAG,-0.0857

row,Sequence,PBM E-score
1,AGACTGTC,-0.204
2,CCGGCTAC,-0.0159
3,ATGCCCTA,-0.0628
4,CCTCTTCG,-0.184
5,CTTGCCTC,-0.158
6,GCGATGGA,0.00934
7,AGTATATA,0.348
8,CGCCCCAC,-0.017
9,AGGACTCC,-0.357
10,AGCTTGCC,-0.0982
11,AACGAGCC,0.0634
12,CCACTAGA,-0.149
13,GTTAGGCA,-0.0663
14,CGCAATCC,0.107
15,AATTACTC,0.236
16,ACTGTCAG,-0.0286
17,ACCGTGTG,-0.0447
18,GAGGTCTA,-0.122
19,ACTCCTTC,-0.234
20,AGCTAGAG,-0.179
21,CGGCTTTC,0.133
22,ACCCCTCT,-0.279
23,CGGGTCGA,-0.304
24,ACATGTGC,-0.012
25,ACGGATTG,0.0767

row,Sequence,PBM E-score
1,GATGCTGC,-0.256
2,AAAGGGTG,0.0199
3,CCTACCGA,-0.172
4,GACCTCTC,-0.183
5,CTCGGAAG,-0.117
6,AACTACCG,-0.0487
7,CTAGAGAC,-0.289
8,GGGGTTGA,-0.0938
9,GATAAACC,0.137
10,AACATCGT,-0.0624
11,CGTTGGCA,-0.112
12,ATCAGTAC,0.086
13,ACGGGCAA,-0.0753
14,CAGACCCG,-0.236
15,CTACTATC,0.143
16,CAATTCAG,-0.0484
17,GTCTAAAC,0.0407
18,TTCGTCAA,0.183
19,AAGAACGT,0.191
20,CCCCATGC,-0.165
21,AGGTAAGA,0.146
22,CTAGCGAG,-0.182
23,ATCAACAT,0.275
24,CCAGTCCC,-0.286
25,TGCCTCCA,-0.325

row,Sequence,PBM E-score
1,CAGCGTGC,-0.0501
2,ATTTTCAC,0.159
3,AACCAATG,0.106
4,AATTATAG,0.193
5,GCGTATGA,0.265
6,AAGCCAAC,-0.0536
7,ACAGGAAT,-0.0899
8,GCGGCTAA,0.128
9,GACCAGGA,-0.292
10,TGGGTGAA,0.223
11,CACCTGAG,-0.125
12,CGAATATC,0.0376
13,AGGATAAG,-0.198
14,TTCATCAA,0.151
15,TATTCTAA,0.161
16,TAGCATGA,0.134
17,CGATCGAC,0.0634
18,ATTCAATA,0.246
19,GAATGACC,0.0547
20,ACGCCTAC,-0.167
21,AATAGTTA,0.16
22,CCTTCCGC,-0.259
